# Data reported in publication PMC6919601, “Identification of Plasmodium dipeptidyl aminopeptidase allosteric inhibitors by high throughput screening” (PLoS ONE, 2019).
# Screen size: about 110,000 compounds; about 230 (0.21%) showed an effect of 50% or more. The list shows a part of the results.
# Biological target: DPAP1 (Plasmodium falciparum, UniProt Q8IIJ9)
# Assay: primary screen, percent inhibition; read by cleavage of a fluorogenic dipeptide substrate; higher = more effect of the substance
# Design: species or system P. falciparum D10 trophozoite lysates; single well
# 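Further: 30 min substrate incubation versus DMSO and 10 µM JCP410 controls.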
# Sequence of DPAP1 (Q8IIJ9 whole entry, looked up): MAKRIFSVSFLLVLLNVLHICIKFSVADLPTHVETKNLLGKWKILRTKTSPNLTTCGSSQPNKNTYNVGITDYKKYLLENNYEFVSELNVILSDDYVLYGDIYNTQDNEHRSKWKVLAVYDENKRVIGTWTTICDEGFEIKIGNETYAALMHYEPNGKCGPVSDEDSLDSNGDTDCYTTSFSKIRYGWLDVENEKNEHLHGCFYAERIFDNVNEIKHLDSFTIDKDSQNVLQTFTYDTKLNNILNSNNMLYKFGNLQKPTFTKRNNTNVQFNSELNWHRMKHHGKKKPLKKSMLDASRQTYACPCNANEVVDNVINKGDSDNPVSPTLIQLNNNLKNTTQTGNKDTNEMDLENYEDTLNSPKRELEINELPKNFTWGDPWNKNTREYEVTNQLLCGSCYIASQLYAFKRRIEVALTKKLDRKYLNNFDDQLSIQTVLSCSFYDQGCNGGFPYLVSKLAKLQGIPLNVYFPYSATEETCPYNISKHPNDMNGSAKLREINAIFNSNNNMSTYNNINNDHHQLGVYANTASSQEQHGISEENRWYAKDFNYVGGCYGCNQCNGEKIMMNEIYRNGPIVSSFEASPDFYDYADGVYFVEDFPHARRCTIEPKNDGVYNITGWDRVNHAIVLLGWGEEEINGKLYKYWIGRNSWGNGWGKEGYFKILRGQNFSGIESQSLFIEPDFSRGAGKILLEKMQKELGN
row,SMILES,% Inhibition @ 10 uM
1,CC(=O)Nc1ccc(S(=O)(=O)N2CCc3ccccc32)cc1,-2.42%
2,CN(C)c1cc(N)c2c(n1)CCCC2,3.05%
3,O=C(CCCc1nnc2n3nc(-c4ccccc4)nc3c3ccccc3n12)NC1CCCCC1,-6.52%
4,c1ccc2c(c1)[nH]c1cncnc12,-1.22%
5,Cc1ccc(-n2nc3c(=O)n(CCCC(=O)NCc4ccccc4Cl)nc(C)c3c2C)cc1,-2.68%
6,CCn1ncc(C2=NOC(C(=O)N3CCC4(CC3)OCCO4)C2)c1C (centres unmarked),-10.5%
7,CCCC(=O)Nc1ccc(Cl)c(NC(=O)c2ccc(C)cc2)c1,-3.69%
8,O=C(O)CCCCCC1CCNC(=O)N1 (centres unmarked),3%
9,Cc1ccc(N(CC(=O)N2CCN(C)CC2)S(=O)(=O)c2ccc(C)cc2)cc1,-3.28%
10,Cc1ccccc1C1=NC(C(F)(F)F)(C(F)(F)F)N=C2C=CC=CN21,-3.76%
11,c1ccc(-n2ncnc2-c2ccc3c(c2)OCO3)cc1,-5.44%
12,CN(C)c1ccc(/C=C/c2ccnc3ccccc23)cc1,3.1%
13,Cc1ccc2onc(CNC(=O)NCCN3CCc4ccccc4C3)c2c1,4.29%
14,CN1C(=O)CN=C(c2ccccc2)c2cc(Br)ccc21,-0.766%
15,CC1CCCN(CCCNC(=O)c2cc3ccc4cccnc4c3[nH]2)C1 (centres unmarked),-0.349%
16,CCCn1c2ccccc2c2cnn(CC(=O)Nc3nc4ccc(OCC)cc4s3)c(=O)c21,0.958%
17,CCCN1CCN(C(=O)c2cccc3c2C(=O)N(C2CCCCC2)C3)CC1,-0.499%
18,Cc1ccccc1Nc1nc(Cl)nc(NC(C)(C)C)n1,-3.38%
19,CCc1ccc(-c2cn3nc(N4CCC(C(=O)NCc5cccc(Cl)c5)CC4)sc3n2)cc1,0.0882%
20,CCS(=O)(=O)N1CCC2(CC1)OC(=O)C(C)=C2C(=O)NCc1ccc(F)cc1,-5.14%
21,CCCOc1ccc(C2SCC(=O)Nc3c2c(O)nn3C(C)C)cc1 (centres unmarked),1.25%
22,Clc1nc(NCCN2CCOCC2)nc(N2CCCCC2)n1,2.41%
23,COc1cccc(/C=C(\C#N)c2nc(-c3ccc(C)cc3)cs2)c1,-3.04%
24,CC(C)CNC(=O)C1CC(=O)N(c2ccccc2)C1 (centres unmarked),-0.622%
25,COc1cccc2c1cc1c(=O)n(CC(=O)N3CCN(C(=O)c4ccco4)CC3)nc(C)n12,1.68%
26,CCOc1cc(C(=O)Nc2nnc(COC)s2)cc(OCC)c1OCC,-3.33%

row,SMILES,% Inhibition @ 10 uM
1,O=C(Nc1cccc(C(F)(F)F)c1)c1ccc(Cl)c([N+](=O)[O-])c1,-0.197%
2,CC12CCCc3c(-c4nc[nH]n4)c(-c4ccccc4)c(=O)n(c31)-c1ccccc12 (centres unmarked),4.41%
3,COCCCNC(=O)/C(C#N)=C/c1c(Oc2ccccc2C)nc2c(C)cccn2c1=O,-5.1%
4,CCCOc1ccc(/C=C2\N=C(c3ccc(Cl)cc3)OC2=O)cc1OC,3.04%
5,CCOC=C1C(=O)c2ccccc2C1=O,-0.289%
6,O=C(NCc1ccco1)c1c(O)nc2ccccc2c1O,4.45%
7,O=C(NC(Cc1c[nH]c2ccccc12)C(=O)O)c1ccco1 (centres unmarked),3.16%
8,Cc1cccc(-c2noc(CNC(=O)COc3cccc(C)c3C)n2)c1,-2.99%
9,CC(C)c1ccc(CNCCCSc2nnnn2C)cc1,-8.57%
10,CCOCCCNC(=O)C(c1ccc(C)cc1)N(Cc1ccc2c(c1)OCO2)C(=O)c1cnccn1 (centres unmarked),2.74%
11,CCC(C)NC(=O)C1CCN(c2nnc(C)c3c(C)n(-c4ccc(Cl)cc4)nc23)CC1 (centres unmarked),-2.14%
12,CC(=O)Nc1ccc(NC(=O)c2cc(C)n(C)n2)cc1,-2.66%
13,CC1CN(C2=NC(=O)/C(=C\c3ccccc3)S2)CC(C)O1 (centres unmarked),-7.98%
14,Cc1nn(CCC(=O)NCCC(C)C)c(=O)c2nn(-c3ccccc3)c(C)c12,-4.96%
15,COc1ccc2c(CNCc3ccc4c(c3)OCO4)c(C(=O)O)n(Cc3ccccc3C)c2c1,3.61%
16,CC(C)C(=O)Nc1ccc(C(=O)NC(c2ccccc2)c2ccccc2)cc1,-2.19%
17,COc1cc(C2=NOC(C(=O)Nc3cc(C)on3)C2)cc(OC)c1OC (centres unmarked),-0.431%
18,Cc1ccc(NC(=O)c2cccnc2C(=O)O)nc1,3.96%
19,O=C(c1cccc(F)c1)N1CCCC(C(=O)N2CCCCCC2)C1 (centres unmarked),-1.17%
20,CCOCc1ccc(O)c2ncccc12,1.19%
21,CCN(CC)c1nc(Cl)nc(N(CC)CC)n1,-0.216%
22,Cc1cc(NS(=O)(=O)c2ccc(NC(=O)c3ccc(-c4ccccc4)cc3)cc2)no1,4.11%
23,CCCC[C@H](NC(=O)[C@@H](NC(=O)c1ccc(CN)cc1)[C@H](C)CC)C(=O)CO,-5.64%
24,COc1ccc(N2CCN(C(=O)c3sccc3C)CC2)cc1,-3.78%
25,CC1CN(C(=O)C2C3CCC(O3)C2C(=O)O)CC(C)O1 (centres unmarked),-5.07%
26,c1ccc2nc(-c3nc4ccccc4o3)ccc2c1,1.35%

row,SMILES,% Inhibition @ 10 uM
1,CCOC(=O)C1=CN(C(C)C)C=C(C(=O)OCC)C1c1ccccc1OCC,3.45%
2,COc1ccc(/C(O)=C/C2=NCCNC2=O)cc1OC,-6.78%
3,CCn1c(C)c(C)c2cc(C(=O)NCCN3CCN(C)CC3)ccc21,-7.04%
4,CC1(C)Cc2ccccc2C2=C(c3ccc4ccccc4n3)C(O)(C(F)(F)F)C(=O)N21 (centres unmarked),-2.63%
5,O=C(CN1CCN(CC(=O)c2ccccc2)CC1)c1ccccc1,2.38%
6,O=C(Cn1ncn2c(cc3cc(F)ccc32)c1=O)NCc1ccco1,1.68%
7,Cc1ccccc1-c1nnc(CC23CC4CC(CC(C4)C2)C3)o1,1.22%
8,O=C1OC(c2ccco2)=N/C1=C\c1ccc(OCc2ccccc2)cc1,-0.48%
9,O=C1N(Cc2ccccc2)CCCC12CCCN(Cc1ccccc1)C2=O,2.8%
10,COc1ccc(C(=O)N/C(=C\c2ccco2)C(=O)NC2CCS(=O)(=O)C2)cc1 (centres unmarked),-0.178%
11,CCC(C)Sc1nc2c(c(=O)[nH]c(=O)n2C)n1Cc1ccccc1Cl (centres unmarked),2.46%
12,O=C(NC1CC1)C1=CCN(S(=O)(=O)c2ccc(Br)cc2)CC1,0.277%
13,Cc1cc2nc(-c3ccncc3)cc(C(F)(F)F)n2n1,-2.91%
14,CCOc1ccc(CNCc2c(C(=O)O)c(C)n(Cc3ccccc3C)c2C)cc1OC,-5.72%
15,Cc1ccc(C(=O)c2cnc3ccccc3c2N2CCCC2)cc1,-5.03%
16,OCC1CC(CO)C(F)(C(F)(F)F)C1(F)F (centres unmarked),2.6%
17,C=CCNc1nc(Cl)nc(NCc2ccco2)n1,-3.35%
18,CCC1(C)OC(=O)N(CCOC23CC4CC(CC(C4)C2)C3)C1(C)O (centres unmarked),-5.63%
19,c1ccc(Cc2nc3c(ccc4nsnc43)[nH]2)cc1,-2.14%
20,CCSc1nc(N)c(C#N)c(-c2ccccc2)c1C#N,-1.07%
21,CC(C)C[C@H](NS(=O)(=O)c1cccc(Br)c1)C(=O)NCC#N,-0.207%
22,c1ccc2c(c1)NC1CCCCC1C1(CCCCC1)N2 (centres unmarked),-3.86%
23,COc1cccc(NCN2C(=O)c3ccccc3C2=O)c1,-3.52%
24,CCOC(=O)N1CCc2c(sc3c2C(=O)NC(c2cc4c(cc2Cl)OCO4)N3)C1 (centres unmarked),4.08%
25,O=C(NCc1cccc(CNC(=O)C2CCCO2)c1)C1CCCO1 (centres unmarked),-2.6%
26,COc1ccc(-c2nnc(N3CCC(C)CC3)c3ccccc23)cc1,-2.75%

row,SMILES,% Inhibition @ 10 uM
1,CC[C@H](NC(=O)C1(NC(=O)c2ccc(-c3ccccc3Cl)c(Cl)c2)CCCCCC1)C(=O)c1nc2ccccc2o1,-1.5%
2,O=S(=O)(NC1CC1)c1ccc(Br)cc1,-2.77%
3,Cc1nn(C(C)C(=O)NCCCN(C)C2CCCCC2)c(=O)c2cc3occc3n12 (centres unmarked),-2%
4,CCc1cc(=O)oc2c3c(c(Cl)cc12)OCN(Cc1ccc2c(c1)OCO2)C3,2.54%
5,COc1ccc(-c2ccc(CNCCSc3nnnn3C)o2)cc1Cl,1.46%
6,Fc1ccccc1CN1CCN(c2cccc(Cl)c2)CC1,3.25%
7,Cc1cnc(C)c(N2CCC(O)CC2)n1,0.51%
8,CC(=O)N1CCN(Cc2c(Cl)cccc2Cl)CC1,-4.95%
9,CC(=O)c1c(C)n(-c2ccc(C)cc2C)c2ccc(OCC(N)=O)cc12,-1.33%
10,Cc1cccc(N2CCc3c2nc2ccccc2c3NC(=O)CN2CCCCC2)c1,-3.63%
11,CC1CCCC(C)N1CCCNC(=O)c1csc2c1CCCC2 (centres unmarked),-1.44%
12,CCOc1ccccc1N1CCN(C(=O)c2cccc([N+](=O)[O-])c2C)CC1,-4.03%
13,Cc1ccc2nc(Cl)c3cc(C(=O)N4CCN(C(=O)c5ccco5)CC4)sc3c2c1,-1.7%
14,Cc1cc(C)c(C#N)c(SCC(=O)Nc2nonc2N)n1,1.11%
15,c1ccc(CCNC2CCCc3c2[nH]c2ccc(-c4ccccc4)cc32)cc1 (centres unmarked),7.72%
16,Cc1ccc(C(=O)NS(=O)(=O)c2ccccc2)cc1,-1.93%
17,O=[N+]([O-])c1cnc(-c2ccccc2)nc1,0.215%
18,Cc1nc2c(C)cccc2c(O)c1CN1CCCC(C)C1 (centres unmarked),2.17%
19,O=C(O)c1ccc(N2C(=O)c3ccc(C(=O)c4ccc5c(c4)C(=O)N(c4ccc(C(=O)O)cc4)C5=O)cc3C2=O)cc1,-3.55%
20,CCN1CCN(C2=NC(=O)/C(=C/c3ccccc3O)S2)CC1,0.561%
21,CCCCS(=O)(=O)N1CCC(c2nnnn2-c2ccc(F)cc2)CC1,-4.67%
22,CCOC(=O)c1[nH]c2cc(OC)c(OC)cc2c1N1C(=O)CCC1=O,-1.7%
23,Cc1ccc(C2=NN(CCC(=O)N3CCOCC3)C(=O)CC2)cc1,1.62%
